According to PubChem BioAssay (NCI):
“And” between values parts separate entries of the source, which are not always exact repeats. Equal entries are not always repeated.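 Briefly, cells in 96-well plates were exposed to five compound concentrations for 48 h, and endpoints were estimated by linear interpolation. Here, GI50 denotes the concentration required for 50% inhibition of growth. TGI marks complete inhibition of growth.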

These compounds were tested on NCI-H322M lung (assay: NCI-60 cell line screen, 48 h).

How did the GI50 turn out when `O=C1c2cccc3cccc(c23)C(=O)N1CCCCOc1ccc(-c2nc3ccc(N4CCOCC4)cc3[nH]2)cc1` was run?
The GI50 was 2.2 µM.

Which TGI does the source give for `c1ccc(COc2nc3ccc(C45CC6CC(CC(C6)C4)C5)cc3[nH]2)cc1` here?
Its TGI is > 100 µM.

With `CC(C)=NN/C(=N\S(=O)(=O)c1cc(Cl)c(Oc2ccc([N+](=O)[O-])cc2Cl)c(Cl)c1)Nc1ccc(Cl)cc1` as the compound, how does the TGI read?
Its TGI is > 100 µM.

How did the TGI turn out when `O=c1c(-c2ccccc2)c[nH]c2cc([N+](=O)[O-])c(/C(Cl)=C/c3ccccc3)cc12` was run?
Its TGI is > 46.4 µM.

Which TGI does the source give for `COc1cccc(-n2nnc3c(N)nc(N)nc32)c1` here?
Its TGI is > 100 µM.

What does the source list for `CCN1C(=O)N(c2c(F)c(OC)cc(OC)c2F)Cc2cnc3[nH]c(CN4CCOCC4)cc3c21`?
GI50: 1.21 µM; TGI: > 100 µM

How did the TGI turn out when `O=c1[nH]c2ccc(CC(=S)N3CCN(c4ccccc4)CC3)cc2s1` was run?
Its TGI is > 100 µM.

With `C[Si](C)(C)/C(Br)=C\CCN1C(=O)CCC1O` (stereo not given) as the compound, how does the TGI read?
The TGI was > 100 µM.

`CCC(C#N)N(Cc1cccc(CN(C(C)=O)C(C#N)CC)c1)C(C)=O` (stereo not given) was tested. Which TGI did it give?
Its TGI is > 100 µM.

Which results are given for `CC1OC(OC2C(CO)OC(O[C@H]3CC[C@@]4(C)C(=CC[C@H]5[C@@H]6C[C@@H]7O[C@](O)(CC[C@@H](C)COC8OC(CO)C(O)C(O)C8O)[C@@H](C)[C@@H]7[C@@]6(C)CC[C@@H]54)C3)C(OC3OC(C)C(O)C(O)C3O)C2O)C(O)C(O)C1O` (stereo not given in full)?
GI50: 3.97 µM; TGI: 14 µM

How did the TGI turn out when `CCOC(=O)Cc1csc(/N=C\c2c(O)c3ccccc3oc2=O)n1` was run?
The TGI was > 100 µM.

`OC1(c2ccc(Cl)cc2)c2ccccc2C2=Nc3ccccc3CN21` (stereo not given) was tested. Which TGI did it give?
The TGI was > 100 µM.

How did the GI50 turn out when `CC1=C(C)C(=O)C(C(C)C2=C(C)C(=O)C(C)=C(C)C2=O)=C(C)C1=O` was run?
The GI50 was > 100 µM.

What about the TGI of the same compound?
The TGI was > 100 µM.

How did the TGI turn out when `CC(C)(C)[C@@H]1NC(=O)CN1C(=O)OCc1ccccc1` was run?
The TGI was > 100 µM.

With `CCCCCCCCCCCCCC(=O)OCC1OC(OC)C(NC(=O)N(CCCl)N=O)C(O)C1O` (stereo not given) as the compound, how does the TGI read?
Its TGI is 39.8 µM.

How did the GI50 turn out when `C=C1C(=O)O[C@H]2[C@H]1CC/C(Cn1cc(CCC)nn1)=C\CC[C@@]1(C)O[C@@H]21` was run?
Its GI50 is 21.5 µM.

What about the TGI of the same compound?
Its TGI is 59.5 µM.

Which GI50 does the source give for `Cc1ccc(/C=C2\CCOC2=O)cc1` here?
Its GI50 is > 100 µM.

And the TGI?
The TGI was > 100 µM.

For `O=[N+]([O-])c1ccccc1S(=O)(=O)N1CCCc2cc(Cl)ccc21`, which TGI is on record?
The TGI was > 100 µM.

Which TGI does the source give for `O=c1c2ccccc2nc(-c2ccc(Cl)cc2)n1O` here?
Its TGI is > 100 µM.

How did the TGI turn out when `N#Cc1ccc(Nc2nc3nc[nH]c3c(=O)[nH]2)cc1` was run?
The TGI was > 100 µM.

How did the GI50 turn out when `N#Cc1c2ccccc2c2nnc3cc(Cl)c(Cl)cc3n12` was run?
Its GI50 is 87.1 µM.

And the TGI?
Its TGI is > 100 µM.

Which TGI does the source give for `COC(=O)CP1(=O)OC2C(C3CCC2(C)C3(C)C)N1c1cc(C(F)(F)F)cc(C(F)(F)F)c1` (stereo not given) here?
The TGI was > 100 µM.

For `N=C(/C=C/c1ccc(-c2cn3cc(/C=C/C(=N)N4CCOCC4)ccc3n2)cc1)N1CCOCC1`, which TGI is on record?
The TGI was > 100 µM.

How did the TGI turn out when `COc1ccc2c(c1)CC[C@@H]1C2CC[C@]2(C)OC(=O)CCC12` (stereo not given in full) was run?
Its TGI is > 100 µM.

With `N#CC(C(=O)c1ccccc1F)c1nc2cc(C(F)(F)F)ccc2s1` (stereo not given) as the compound, how does the TGI read?
The TGI was 82.9 µM.

How did the TGI turn out when `C=C1C(=O)OC2C(C)C3C=CC(=O)[C@@]3(C)C(OC(=O)/C(C)=C/C)C1[C@@H]2OC(C)=O` (stereo not given in full) was run?
The TGI was 3.9 µM.

For `OC(Cn1cncn1)(Cn1cncn1)c1ccc(Cl)cc1Cl`, which TGI is on record?
Its TGI is > 100 µM.

Which TGI does the source give for `Cn1c2ccccc2n2c(=O)c(-c3ccc(O)cc3)nnc12` here?
The TGI was > 100 µM.

How did the TGI turn out when `CCOC(=O)C1(C(=O)OCC)C[C@H]2CON=C2[C@@H]1c1ccc(C(F)(F)F)cc1` was run?
The TGI was > 100 µM.

`CCc1nnc2sc(-c3ccc(-c4ccc(Cl)cc4Cl)o3)nn12` was tested. Which TGI did it give?
Its TGI is > 100 µM.

`CO/N=C1/c2cc(OC)ccc2-c2c(NOC)nc3ccccc3c21` was tested. Which GI50 did it give?
The GI50 was 28.7 µM.

What about the TGI of the same compound?
Its TGI is > 100 µM.

With `COc1cccc2c1C(=O)c1c(O)c3c(c(O)c1C2=O)C[C@@](O)(C(C)=O)C[C@@H]3OC1CC(N)C(O)C(C)O1` (stereo not given in full) as the compound, how does the GI50 read?
The GI50 was 0.0968 µM.

Which TGI does the source give for `CCC1=C(C)C2=NC1=CC1=NC(=C(CC)/C1=C/O)C=C1N=C3C(=C1C)C(=O)C(C(=O)OC)C3=C1NC(=C2)C(C)C1CCC(=O)OC` (stereo not given) here?
The TGI was > 100 µM.

`Cc1ccccc1NC(=O)NC(CC(N)=O)c1ccc2c(c1)nc(-c1cccc(Oc3ccc(C(C)(C)C)cc3)c1)n2CCCN1CCCCC1C` (stereo not given) was tested. Which GI50 did it give?
Its GI50 is 5.55 µM.

And the TGI?
The TGI was 11.9 µM.

With `O=C1C(c2ccccc2)=C(c2ccccc2)C(c2ccccc2)/C1=C1\C(=O)C(c2ccccc2)=C(c2ccccc2)C1c1ccccc1` (stereo not given) as the compound, how does the TGI read?
The TGI was > 100 µM.

With `Cc1cc(SCC(=O)c2ccc(Br)cc2)cc(C)[o+]1` as the compound, how does the TGI read?
The TGI was > 100 µM.

How did the TGI turn out when `C[N+](C)(C)CCCCCc1c2nc(c(CCCCC[N+](C)(C)C)c3ccc([nH]3)c(CCCCC[N+](C)(C)C)c3ccc([nH]3)c(CCCCC[N+](C)(C)C)c3nc1C=C3)C=C2` was run?
Its TGI is > 100 µM.

With `COc1ccccc1NC(=S)N/N=C(/c1ccccc1)c1ccccn1` as the compound, how does the TGI read?
Its TGI is 20.6 µM.

For `Cc1nn(-c2ccccc2)c(C)c1/C=N/NC(=O)c1sc(=S)n(-c2ccc(Cl)cc2)c1N`, which TGI is on record?
Its TGI is > 100 µM.

With `CCOC(=O)c1ccc(N=C/C=C(\Nc2ccc(C(=O)OCC)cc2)c2ccc3ccccc3c2)cc1` as the compound, how does the TGI read?
Its TGI is 79.4 µM.

How did the GI50 turn out when `Cn1c(=O)c(F)c(Nc2ccc(I)cc2F)c2c(=O)n(C[C@@H](O)CO)cnc21` was run?
The GI50 was 0.0163 µM and 0.0245 µM.

And the TGI?
The TGI was > 100 µM.

`COC(=O)C1Cc2c([nH]c3ccccc23)-c2[nH]c3ccccc3c2CC(NC(C)=O)C(=O)NCC(=O)N1` (stereo not given) was tested. Which TGI did it give?
Its TGI is > 100 µM.

How did the GI50 turn out when `COc1ccc(C2CC(c3cc(OC)c(OC)c(OC)c3)=NN2)cc1` (stereo not given) was run?
The GI50 was 74.7 µM.

And the TGI?
Its TGI is > 100 µM.

For `COC(=O)c1ccc2c(c1)nc(-c1ccc(Cl)cc1)n2-c1cc(C(C)(C)C)[nH]n1`, which GI50 is on record?
The GI50 was 10.4 µM.

And the TGI?
The TGI was 86.4 µM.

Which TGI does the source give for `COC(=O)/C(C#N)=C1\N=NNN1CCCc1ccccc1` here?
Its TGI is > 100 µM.

How did the TGI turn out when `Cc1ccc(S(=O)/C=C(\NC(=O)OCc2ccccc2)C(F)(F)F)cc1` (stereo not given) was run?
Its TGI is > 100 µM.

What does the source list for `CC1=C(C(=O)Nc2ccc(F)c(Cl)c2)C(c2cccc(Cl)c2)NC(=O)N1` (stereo not given)?
GI50: 11.7 µM; TGI: 35.6 µM

How did the TGI turn out when `COc1ccccc1NC(=O)C1=C(C)NC(C)=C(C(=O)Nc2ccccc2OC)C1c1ccc(C(C)C)cc1` was run?
Its TGI is > 100 µM.
